From the supplement of paper PMC12355420
Counter-ions that a name gives are not always drawn. Some of the results follow. Most values come without repeats; read them as rough.

These compounds were tested on HeLa VPS33A KO + NLuc-VPS33A R498W (assay: relative mutant VPS33A R498W amount (NanoLuc luminescence) vs DMSO (fraction of DMSO); HeLa model of a glycosaminoglycan (GAG) storage disease; KI is knock-in and KO knock-out; SDC1 is syndecan 1; higher = higher mutant VPS33A level). Details: 50 µM; 24 h.
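Also: screen of an FDA-approved drug library, NanoLuc luminescence read after lysing the treated cells, taken as a measure of mutant VPS33A protein stability.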

Row | Compound | relative mutant VPS33A R498W amount
1 | CCOC(=O)c1cncn1[C@H](C)c1ccccc1 [Etomidate hydrochloride] | 0.914
2 | C#C[C@]1(O)C=C[C@H]2[C@@H]3CCC4=CC(=O)CC[C@@H]4[C@H]3CC[C@@]21CC [Gestodene] | 1.4
3 | CCOC(=O)Nc1ccc(NCc2ccc(F)cc2)cc1N [Retigabine dihydrochloride] | 0.964
4 | C[C@H]1C(=O)O[C@@H]2CCN3CC=C(COC(=O)[C@](C)(O)[C@]1(C)O)[C@H]23 [Crotaline] | 1.13
5 | COc1cc2c(cc1OC)C1CC(=O)C(CC(C)C)CN1CC2 (stereo unspecified) [Tetrabenazine] | 0.755
6 | CN(C)[C@@H]1C(=O)C(C(N)=O)=C(O)[C@@]2(O)C(=O)C3=C(O)c4c(O)ccc(Cl)c4[C@@](C)(O)[C@H]3C[C@@H]12 [Chlortetracycline HCl] | 0.553
7 | COC1=C[C@@H]2[C@@H]3Cc4ccc(OC)c(O)c4[C@]2(CCN3C)CC1=O [Sinomenine] | 1.4
8 | COc1ccc(C=O)cc1 [p-Anisaldehyde] | 1.29
9 | Cc1cc(O)ccc1Cl [Chlorocresol] | 1.23
10 | CN[C@H]1[C@H](O)[C@H](O[C@@H]2[C@@H](O)[C@H](O[C@H]3O[C@H](C(C)O)[C@@H](O)[C@H](O)[C@H]3N)[C@@H](N)C[C@H]2N)OC[C@@]1(C)O (stereo partly specified) [Geneticin, G-418 Sulfate] | 0.9
11 | N.N.[Cl][Pt][Cl] [Cisplatin] | 1.3
12 | CCCC[N+]1(C)[C@@H]2C[C@@H](OC(=O)[C@H](CO)c3ccccc3)C[C@H]1[C@@H]1O[C@@H]12 (stereo partly specified) [Scopolamine butylbromide] | 0.847
13 | Cc1ccccc1O [o-Cresol] | 1.2
14 | COC(=O)C1=CCCN(C)C1 [Arecoline hydrobromide] | 1.38
15 | CNC1CC(N)C(O)C(OC2OC(CO)C(O)C3OC4(OC(C(N)CO)C(O)C(O)C4O)OC23)C1O (stereo unspecified) [Hygromycin B] | 1.09
16 | CCN1CC2(OC(=O)c3ccccc3NC(C)=O)CCC(OC)C34C1C(CC23)C1(O)CC(OC)C2CC4C1(O)C2OC (stereo unspecified) [Lannaconitine] | 0.796
17 | CCC1(c2cccc(O)c2)CCCCN(C)C1 (stereo unspecified) [Meptazinol HCl] | 1.55
18 | Cc1c(N)nc(C(CC(N)=O)NCC(N)C(N)=O)nc1C(=O)NC(C(=O)NC(C)C(O)C(C)C(=O)NC(C(=O)NCCc1nc(-c2nc(C(=O)NCCC[S+](C)C)cs2)cs1)C(C)O)C(O[C@@H]1O[C@@H](CO)[C@@H](O)[C@H](O)[C@@H]1O[C@H]1O[C@H](CO)[C@@H](O)[C@H](OC(N)=O)[C@@H]1O)c1cnc[nH]1 (stereo partly specified) [Bleomycin Sulfate] | 0.789
19 | Cc1cccc(C)c1NC(=O)CN1CCCC1=O [Nefiracetam] | 1.59
20 | O=C([O-])C(Cl)Cl.[Na+] | 1.25
21 | CC(O)(CS(=O)(=O)c1ccc(F)cc1)C(=O)Nc1ccc(C#N)c(C(F)(F)F)c1 (stereo unspecified) [Bicalutamide] | 1.43
